Reference: patent publication US20200347115A1 (Hoffmann-La Roche, published 2020)

Columns and labels:
human 4-1BB (CD137) [1] = target: T1, human 4-1BB (CD137) (human, UniProt Q07011 24-255); assay: flow cytometry on anti-CD3/anti-CD28 pre-activated human PBMCs
T1 construct: whole, on cells; also called hu4-1BB

human 4-1BB (CD137) [2] = target: T1, human 4-1BB (CD137); assay: flow cytometry on activated CD4+ T cells, FIG. 5A

Row | Binder | binding result (human 4-1BB (CD137) [1]) | binding result (human 4-1BB (CD137) [2])
1 | CD19(2B11)-4-1BBL (Charged variant), Construct 4.4 of WO 2016/075278 (Fc fusion, Positive control; monovalent CD19 (2B11) targeted 4-1BB ligand (71-248) trimer-containing Fc (kih) fusion with CH-CL crossover and charged residues; also called CD19-4-1BBL Ab) chain 1: REGPELSPDDPAGLLDLRQGMFAQLVAQNVLLIDGPLSWYSDPGLAGVSLTGGLSYKEDTKELVVAKAGVYYVFFQLELRRVVAGEGSGSVSLALHLQPLRSAAGAAALALTVDLPPASSEARNSAFGFQGRLLHLSAGQRLGVHLHTEARARHAWQLTQGATVLGLFRVTPEIPAGLGGGGSGGGGSREGPELSPDDPAGLLDLRQGMFAQLVAQNVLLIDGPLSWYSDPGLAGVSLTGGLSYKEDTKELVVAKAGVYYVFFQLELRRVVAGEGSGSVSLALHLQPLRSAAGAAALALTVDLPPASSEARNSAFGFQGRLLHLSAGQRLGVHLHTEARARHAWQLTQGATVLGLFRVTPEIPAGLGGGGSGGGGSRTVAAPSVFIFPPSDRKLKSGTASVVCLLNNFYPREAKVQWKVDNALQSGNSQESVTEQDSKDSTYSLSSTLTLSKADYEKHKVYACEVTHQGLSSPVTKSFNRGE[omitted - human IgG1 Fc with changes] chain 2: REGPELSPDDPAGLLDLRQGMFAQLVAQNVLLIDGPLSWYSDPGLAGVSLTGGLSYKEDTKELVVAKAGVYYVFFQLELRRVVAGEGSGSVSLALHLQPLRSAAGAAALALTVDLPPASSEARNSAFGFQGRLLHLSAGQRLGVHLHTEARARHAWQLTQGATVLGLFRVTPEIPAGLGGGGSGGGGSASTKGPSVFPLAPSSKSTSGGTAALGCLVEDYFPEPVTVSWNSGALTSGVHTFPAVLQSSGLYSLSSVVTVPSSSLGTQTYICNVNHKPSNTKVDEKVEPKSC heavy: QVQLVQSGAEVKKPGASVKVSCKASGYTFTDYIMHWVRQAPGQGLEWMGYINPYNDGSKYTEKFQGRVTMTSDTSISTAYMELSRLRSDDTAVYYCARGTYYYGPQLFDYWGQGTTVTVSSASTKGPSVFPLAPSSKSTSGGTAALGCLVKDYFPEPVTVSWNSGALTSGVHTFPAVLQSSGLYSLSSVVTVPSSSLGTQTYICNVNHKPSNTKVDKKVEPKSCDKTHTCPPCPAPEAAGGPSVFLFPPKPKDTLMISRTPEVTCVVVDVSHEDPEVKFNWYVDGVEVHNAKTKPREEQYNSTYRVVSVLTVLHQDWLNGKEYKCKVSNKALGAPIEKTISKAKGQPREPQVCTLPPSRDELTKNQVSLSCAVKGFYPSDIAVEWESNGQPENNYKTTPPVLDSDGSFFLVSKLTVDKSRWQQGNVFSCSVMHEALHNHYTQKSLSLSPGK light: DIVMTQTPLSLSVTPGQPASISCKSSQSLETSTGTTYLNWYLQKPGQSPQLLIYRVSKRFSGVPDRFSGSGSGTDFTLKISRVEAEDVGVYYCLQLLEDPYTFGQGTKLEIKRTVAAPSVFIFPPSDEQLKSGTASVVCLLNNFYPREAKVQWKVDNALQSGNSQESVTEQDSKDSTYSLSSTLTLSKADYEKHKVYACEVTHQGLSSPVTKSFNRGEC | binds | –
2 | CD19 (2B11)-4-1BB ligand (71-248) contorsbody P1AA1233 (Fc fusion, Human IgG1 Fc knob-into-hole with P329G, L234A, L235A; also called CD19-4-1BBL contorsbody P1AA1233) chain 1: REGPELSPDDPAGLLDLRQGMFAQLVAQNVLLIDGPLSWYSDPGLAGVSLTGGLSYKEDTKELVVAKAGVYYVFFQLELRRVVAGEGSGSVSLALHLQPLRSAAGAAALALTVDLPPASSEARNSAFGFQGRLLHLSAGQRLGVHLHTEARARHAWQLTQGATVLGLFRVTPEIPAGLGGGGSGGGGSDKTHTCPPCPAPEAAGGPSVFLFPPKPKDTLMISRTPEVTCVVVDVSHEDPEVKFNWYVDGVEVHNAKTKPREEQYNSTYRVVSVLTVLHQDWLNGKEYKCKVSNKALGAPIEKTISKAKGQPREPQVCTLPPSRDELTKNQVSLSCAVKGFYPSDIAVEWESNGQPENNYKTTPPVLDSDGSFFLVSKLTVDKSRWQQGNVFSCSVMHEALHNHYTQKSLSLSPGGGGGSGGGGSREGPELSPDDPAGLLDLRQGMFAQLVAQNVLLIDGPLSWYSDPGLAGVSLTGGLSYKEDTKELVVAKAGVYYVFFQLELRRVVAGEGSGSVSLALHLQPLRSAAGAAALALTVDLPPASSEARNSAFGFQGRLLHLSAGQRLGVHLHTEARARHAWQLTQGATVLGLFRVTPEIPAGL chain 2: QVQLVQSGAEVKKPGASVKVSCKASGYTFTDYIMHWVRQAPGQGLEWMGYINPYNDGSKYTEKFQGRVTMTSDTSISTAYMELSRLRSDDTAVYYCARGTYYYGPQLFDYWGQGTTVTVSSASTKGPSVFPLAPSSKSTSGGTAALGCLVKDYFPEPVTVSWNSGALTSGVHTFPAVLQSSGLYSLSSVVTVPSSSLGTQTYICNVNHKPSNTKVDKKV[omitted - human IgG1 Fc with changes]GGGGSGGGGSREGPELSPDDPAGLLDLRQGMFAQLVAQNVLLIDGPLSWYSDPGLAGVSLTGGLSYKEDTKELVVAKAGVYYVFFQLELRRVVAGEGSGSVSLALHLQPLRSAAGAAALALTVDLPPASSEARNSAFGFQGRLLHLSAGQRLGVHLHTEARARHAWQLTQGATVLGLFRVTPEIPAGL light: DIVMTQTPLSLSVTPGQPASISCKSSQSLETSTGTTYLNWYLQKPGQSPQLLIYRVSKRFSGVPDRFSGSGSGTDFTLKISRVEAEDVGVYYCLQLLEDPYTFGQGTKLEIKRTVAAPSVFIFPPSDEQLKSGTASVVCLLNNFYPREAKVQWKVDNALQSGNSQESVTEQDSKDSTYSLSSTLTLSKADYEKHKVYACEVTHQGLSSPVTKSFNRGEC | – | binds
